The record followed here is US20080075796A1, “Compositions and Methods for Controlling Insects” (TyraTech, Inc., priority 2003, published 2008).

In experiment [1] the test system is Drosophila melanogaster Or83b olfactory receptor, SEQ ID NO: 6. In words: Interaction of plant essential oils with Or83b receptor binding site (3H-tyramine). Particulars: membranes, FIGS. 16, 18-21. On the procedure: (§1) Total RNA is prepared from the head and antenna of wild type Drosophila melanogaster using Trizol Reagent (Invitrogen). They are homogenized in the Trizol using a motor driven teflon pestle and glass homogenizer. RNA is then prepared as per the manufacturer's instructions and includes removal of proteoglycans and polysaccharides by precipitation. The total RNA is reverse transcribed using oligo-dT as a primer and MuLV reverse transcriptase (Applied Biosystems). […] The Sense oligonucleotides contain Not I sites and the antisense oligonucleotides contain Sac II sites. Both restriction sites are indicated by underlined nucleotide. […] For PCR amplification of Or83b, Vent polymerase (New England Biolabs) is used with the following conditions: about 95° C., about 5 min for about 1 cycle; about 95° C., about 30 sec; and about 70° C., about 90 sec for about 40 cycles; and about 70° C., about 10 min for about 1 cycle. For PCR amplification of Or43a, the Failsafe PCR premix selection kit (Epicentre Technologies) is used with the following conditions: about 95° C., about 5 mill for about 1 cycle; about 95° C., about 30 sec; about 60° C., about 30 sec and about 70° C., about 90 sec for about 50 cycles; and about 70° C., about 10 min for about 1 cycle. […] The PCR products are digested with Sac II and Not I, gel purified and ligated into pAC 5.1/N5 His B (Invitrogen). Inserts are sequenced on both strands by automated fluorescent sequencing (Vanderbilt Cancer Center).
(§2) To address whether Or83b receptor and Or43a receptor contain a specific binding site for tyramine, membranes expressing Or83b receptor or Or43a receptor are prepared from cells expressing either receptor, as described above, and used for competitive binding with ^3H-tyramine. The binding assay protocol is exactly as described for cells expressing TyrR, as described above.
(§3) The cells expressing one of the olfactory receptors are used to investigate the interaction of plant essential oils with these receptors and the signaling cascade downstream of each receptor.
(§4) For the binding activity, membranes are prepared from each cell model and used to investigate the interaction of plant essential oil with the receptor binding site.

Experiment [2] concerns Drosophila melanogaster Or43a olfactory receptor, SEQ ID NO: 4. In words: Interaction of plant essential oils with Or43a receptor binding site (3H-tyramine). The following applies: membranes, FIGS. 16, 17, 19-21. On the procedure: as §1, §2, §3, §4
For experiment [3], the system named is Or83b and Or43a receptors. In words: Interaction of plant essential oils with olfactory receptor binding site (membranes, ^3H-tyramine). The following applies: membranes incubated with ^3H-tyramine. Also noted: species or system Drosophila melanogaster. As to the method: as §3, §4
For a further experiment, the system named is farm ants. As to the kind of experiment: Repellent effect on farm ants (treated filter paper). In kind it is in vivo. On the procedure: Adult insect are randomly selected for testing the repellent effect of compositions and are not individually marked. About 5 insects per replicate are used. About 3 replicates are used for each treatment. Untreated control tests are included with only solvent (acetone) application to an equal sized population/replications, held under identical conditions. A filter paper (about 80 cm^2) is treated with the composition (about 100 mg in […] acetone). After about 3 min of air drying, the filter paper is placed in a dish and repellency against insects is performed. Insects are released to the dish, one insect at a time at the far end of the dish. Using one or more stopwatches, the time spent on either the filter paper or the untreated surface of the dish is recorded up to about 300 seconds. Repellency ratio (RR) is calculated as follows: RR=[(time on control surface−time on treated surface)/total time of test].
The repellent effect of various plant essential oils is tested by treating a filter paper with the test oils. After about five minutes at room temperature, the paper is placed in a dish and ants are introduced one at a time. […] Oils are tested alone. Additionally, oils are mixed to form compositions, which are then tested.

In a further experiment the target is T1, Or43a receptor (Drosophila melanogaster, UniProt P81917, L154V).
T1 construct: His (from vector pAc5.1/V5-His B) (C); expressed in transfected cells
T1 sequence (P81917 whole entry L154V): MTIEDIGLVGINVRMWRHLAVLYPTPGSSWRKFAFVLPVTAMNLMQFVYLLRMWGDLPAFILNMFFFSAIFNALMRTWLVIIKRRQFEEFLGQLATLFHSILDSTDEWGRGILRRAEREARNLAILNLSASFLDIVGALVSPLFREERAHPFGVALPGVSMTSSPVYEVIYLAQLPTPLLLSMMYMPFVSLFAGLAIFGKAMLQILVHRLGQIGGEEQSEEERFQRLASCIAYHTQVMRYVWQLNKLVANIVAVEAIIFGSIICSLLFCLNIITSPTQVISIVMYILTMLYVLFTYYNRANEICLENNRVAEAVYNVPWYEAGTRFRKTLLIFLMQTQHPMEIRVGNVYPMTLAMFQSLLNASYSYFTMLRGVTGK
As to the kind of experiment: Intracellular Ca^2+ mobilization in Schneider cells expressing Or43a receptor. Particulars: before vs approximately 150 seconds after treatment. The class given is cell-based. On the procedure: Intracellular calcium ion concentrations ([Ca^2+]i) are measured by using the acetoxymethyl (AM) ester of the fluorescent indicator fura-2 (Enan, et al., Biochem. Pharmacol vol 51, 447-454). In this study, cells expressing tyramine receptor are grown under standard conditions. A cell suspension is prepared in assay buffer (140 mM NaCL, 10 mM HEPES, 10 mM glucose, 5 mM KCl, 1 mM CaCl2, 1 mM MgCl2) and cell number adjusted to about 2×10^6 cells per ml. Briefly, about 1.0 ml cell suspension (about 2×10^6 cells) is incubated with about 5 μM Fura 2/AM for about 30 min at about 28° C. After incubation, the cells are pelleted at about 3700 rpm for about 10 sec at room temperature and then resuspended in about 1.5 ml assay buffer. [Ca^2+]i changes are analyzed in spectrofluorometer in the presence and absence of test chemicals. Excitation wave lengths are about 340 nm (generated by Ca^2+-bound fura-2) and about 380 nm (corresponding to Ca^2+-free fura-2). The fluorescence intensity is monitored at an emission wave length of about 510 nm. No absorbance of fluorescence artifacts are observed with any of the compounds used. The ratio of about 340/380 nm is calculated and plotted as a function of time.
Intracellular Ca^2+ levels are measured using the method described above in Example 3.
Changes in intracellular Ca^2+ levels are calculated based on the difference between the 340/380 fluorescence ratios before and after approximately 150 seconds of the treatment.

Where [4] appears, read: Day 0, time on treated surface of up to about 300 seconds.

Several values for one entry are separate records, joined by “and”; a condition that tells them apart may be missing. Identical values can stand only once.

For `Cc1ccc(C(C)C)c(O)c1` [thymol], the “interaction with the olfactory receptor” value in experiment [1] and in experiment [2] was “interact” each time. In experiment [3], the “interaction with the olfactory receptors” value is given as “interact with the olfactory receptors”. For the same compound, the “Repellency %, R %” value with farm ants (Day 0) stood at 58.3%; in the experiment on farm ants (Day 1) it was 30.4%. The “sec. on T surface” value was 62.6 s and 62.0 s with farm ants (setting [4]); 104.4 s with farm ants (Day 1).
In the case of `CC(C)=CCC/C(C)=C/CO` [geraniol], the “interaction with the olfactory receptor” value in experiment [1] and in experiment [2] was “interact” in each case. Moreover, the “interaction with the olfactory receptors” value in experiment [3] is listed as “interact with the olfactory receptors”. For the same compound, the “change in intracellular Ca^2+ levels (340/380 fluorescence ratio)” value (“change … (340/380 fluorescence ratio)” below) on Or43a receptor is “calcium mobilization”. In addition, the “Repellency %, R %” value with farm ants (Day 0) is 54.0%; in the experiment on farm ants (Day 1) it was 14.0%. In addition, the “sec. on T surface” value in the experiment with farm ants (setting [4]) is 69 s and 69.0 s; with farm ants (Day 1), 129.0 s and 129.4 s.
`CC(=O)OCc1ccc2c(c1)OCO2` [piperonyl acetate]: the “interaction with the olfactory receptor” value in experiment [1] and in experiment [2] was “interact” throughout. Moreover, in experiment [3], the “interaction with the olfactory receptors” value was “interact with the olfactory receptors”. The “change … (340/380 fluorescence ratio)” value on Or43a receptor is given as “calcium mobilization”.
Take `O=CCc1ccccc1` [phenyl acetaldehyde]: the “interaction with the olfactory receptor” value in experiment [1] and in experiment [2] was “interact” in each case. The “interaction with the olfactory receptors” value in experiment [3] is reported as “interact with the olfactory receptors”. Moreover, the “change … (340/380 fluorescence ratio)” value at Or43a receptor is “calcium mobilization”.
For `C=CCc1ccc(O)c(OC)c1` [eugenol], the “interaction with the olfactory receptor” value in experiment [1] and in experiment [2] was “interact” each time. The “interaction with the olfactory receptors” value in experiment [3] is “interact with the olfactory receptors”. For the same compound, on Or43a receptor, the “change … (340/380 fluorescence ratio)” value is on record as “calcium mobilization”.
